The text below walks through data of the supplement of paper PMC6609913.

This assay concerns V-C8 (BRCA2-deficient hamster cells). In words: normalised cell viability (fraction of plate median); higher = more viable cells (less toxic). To be noted: 5 µM. The essentials: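 Hamster V-C8 cells with and without restored BRCA2 were exposed in 96-well plates to library drugs at 5 μM for 3 days (screen 1) or 6 days (screen 2). Cell viability was scored by resazurin assay, then median-plate normalised, averaging triplicate wells.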

Structures can show the parent of a compound that is named as a salt. ± gives the standard deviation of the averaged measurements. Over roughly 1,300 compounds, “normalised cell viability” has its median near 1; the lowest 2% begin near 0.14. Some of the results follow.

Regarding `CN[C@@H]1[C@H](O)[C@H](NC)[C@H]2O[C@@]3(O)C(=O)C[C@@H](C)O[C@H]3O[C@@H]2[C@H]1O` [Spectinomycin dihydrochloride], the normalised cell viability amounted to 1.01 ± 0.027 (treatment time: 3 days) and 1.08 ± 0.031 (treatment time: 6 days).
On the same counts, the results for `N#Cc1ccc(C2CCCc3cncn32)cc1` (centres undefined) [Fadrozole hydrochloride] are 1.01 ± 0.087 and 0.97 ± 0.079.
On the same counts, the results for `Cc1onc(-c2ccccc2Cl)c1C(=O)N[C@@H]1C(=O)N2[C@@H]1SC(C)(C)[C@@H]2C(=O)O` [Cloxacillin sodium salt] are 1.02 ± 0.046 and 1 ± 0.038.
For `N[C@@H](C(=O)N[C@@H]1C(=O)N2C(C(=O)O)=C(Cl)CC[C@H]12)c1ccccc1` [Loracarbef], in that order: 1.05 ± 0.1 and 1.06 ± 0.033.
As for `C#Cc1cccc(Nc2ncnc3cc(OCCOC)c(OCCOC)cc23)c1` [Erlotinib], the normalised cell viability runs as follows: (treatment time: 3 days) 0.923 ± 0.064; (treatment time: 6 days) 0.782 ± 0.15.
For `CN[C@@H]1[C@@H](O[C@H]2O[C@H](CO)[C@@H](N)[C@H](O)[C@H]2O)OC2C[C@@H](N)[C@@H](O[C@H]3[C@H](O)[C@@H](O)[C@H](N)C[C@@H]3N)OC2[C@@H]1O` (some centres undefined) [Apramycin], in that order: 0.995 ± 0.057 and 1.03 ± 0.019.
For `Cc1c(-c2ccccc2)oc2c(C(=O)OCCN3CCCCC3)cccc2c1=O` [Flavoxate hydrochloride], in that order: 0.94 ± 0.044 and 1.02 ± 0.072.
Regarding `CCCN(CCC)S(=O)(=O)c1ccc(C(=O)O)cc1` [Probenecid], the normalised cell viability by setting is: (treatment time: 3 days) 1 ± 0.029; (treatment time: 6 days) 1.07 ± 0.071.
On the same counts, the results for `C[C@]12CC[C@@H]3c4ccc(O)cc4CC[C@H]3[C@@H]1CC[C@@H]2O` [Estradiol-17 beta] are 1 ± 0.038 and 1.1 ± 0.042.
Turning to `COc1ccc2[nH]c([S+]([O-])Cc3ncc(C)c(OC)c3C)nc2n1` (centres undefined) [Tenatoprazole], the normalised cell viability is, setting by setting: (treatment time: 3 days) 1 ± 0.16; (treatment time: 6 days) 0.978 ± 0.072.
In the case of `CN(C)CCOC(c1ccccc1)c1ccccc1` [Diphenhydramine hydrochloride], the normalised cell viability by setting is: (treatment time: 3 days) 1.06 ± 0.099; (treatment time: 6 days) 1 ± 0.028.
On to `NC(Cc1cc(I)c(Oc2cc(I)c(O)c(I)c2)c(I)c1)C(=O)O` (centres undefined) [Thyroxine (L)], for which the normalised cell viability runs as follows: (treatment time: 3 days) 0.87 ± 0.017; (treatment time: 6 days) 0.875 ± 0.044.
For `CN(C)CC/C=C1/c2ccccc2Sc2ccc(Cl)cc21` [Chlorprothixene hydrochloride], in that order: 0.971 ± 0.045 and 0.948 ± 0.064.
For `CC(=O)[C@H]1CC[C@H]2[C@@H]3CCC4=CC(=O)CC[C@]4(C)[C@H]3CC[C@]12C` [Progesterone], in that order: 0.956 ± 0.063 and 0.989 ± 0.18.
`N=C(N)NC(=O)Cc1c(Cl)cccc1Cl` [Guanfacine hydrochloride] showed a normalised cell viability (treatment time: 3 days) of 1.1 ± 0.039 and a normalised cell viability (treatment time: 6 days) of 0.966 ± 0.034.
`CC(=O)O[C@@]12CO[C@@H]1C[C@H](O)[C@@]1(C)C(=O)[C@H](O)C3=C(C)[C@@H](OC(=O)[C@H](O)[C@@H](NC(=O)OC(C)(C)C)c4ccccc4)C[C@@](O)([C@@H](OC(=O)c4ccccc4)[C@H]21)C3(C)C` [Docetaxel]: the normalised cell viability is, setting by setting: (treatment time: 3 days) 0.233 ± 0.014; (treatment time: 6 days) 0.238 ± 0.0079.
On the same counts, the results for `Nc1ccn([C@@H]2O[C@H](CO)[C@@H](O)C2(F)F)c(=O)n1` [Gemcitabine] are 0.176 ± 0.02 and 0.196 ± 0.02.
On the same counts, the results for `CN1C(=O)CC(c2ccccc2)C1=O` (centres undefined) [Phensuximide] are 1.2 ± 0.15 and 1.05 ± 0.069.
For `CC1CNc2c(cccc2S(=O)(=O)N[C@@H](CCCNC(=N)N)C(=O)N2CC[C@@H](C)C[C@@H]2C(=O)O)C1` (some centres undefined) [Argatroban], in that order: 1.13 ± 0.092 and 1.19 ± 0.1.
`CN(C)CCN(Cc1ccccc1)c1ccccn1` [Tripelennamine hydrochloride]: the normalised cell viability is, setting by setting: (treatment time: 3 days) 1.03 ± 0.027; (treatment time: 6 days) 1 ± 0.12.
Take `Clc1ccc(CSC(Cn2ccnc2)c2ccc(Cl)cc2Cl)cc1` (centres undefined) [Sulconazole nitrate]: the normalised cell viability reads like this: (treatment time: 3 days) 0.983 ± 0.067; (treatment time: 6 days) 0.829 ± 0.043.
On the same counts, the results for `CC(=O)O[C@]1(C(C)=O)CC[C@H]2[C@@H]3C=C(Cl)C4=CC(=O)[C@@H]5C[C@@H]5[C@]4(C)[C@H]3CC[C@@]21C` [Cyproterone acetate] are 0.903 ± 0.021 and 0.978 ± 0.02.
Turning to `Clc1ccc(CO/N=C(\Cn2ccnc2)c2ccc(Cl)cc2Cl)c(Cl)c1` [Oxiconazole Nitrate], the normalised cell viability turned out to be 0.807 ± 0.043 (treatment time: 3 days) and 0.898 ± 0.043 (treatment time: 6 days).
For `C#C[C@]1(OC(C)=O)CC[C@H]2[C@@H]3CCC4=CC(=NO)CC[C@@H]4[C@H]3CC[C@@]21CC` (mixture of isomers) [Norgestimate], the normalised cell viability is 0.909 ± 0.022 (treatment time: 3 days) and 0.907 ± 0.069 (treatment time: 6 days).
As for `O=C(O)COCCN1CCN(C(c2ccccc2)c2ccc(Cl)cc2)CC1` (centres undefined) [Cetirizine dihydrochloride], the normalised cell viability is 1.08 ± 0.046 (treatment time: 3 days) and 1.03 ± 0.029 (treatment time: 6 days).
For `N[C@@H]1CONC1=O` [D-cycloserine], in that order: 1.11 ± 0.12 and 0.984 ± 0.042.
On the same counts, the results for `Clc1ccc(Cn2c(CN3CCCC3)nc3ccccc32)cc1` [Clemizole hydrochloride] are 1.16 ± 0.017 and 1.12 ± 0.15.
For `COc1cc2nc(N(C)CCCNC(=O)C3CCCO3)nc(N)c2cc1OC` (centres undefined) [Alfuzosin hydrochloride], the normalised cell viability (treatment time: 3 days) amounted to 0.987 ± 0.056 and the normalised cell viability (treatment time: 6 days) came to 1.08 ± 0.08.
For `N=C(N)NS(=O)(=O)c1ccc(N)cc1` [Sulfaguanidine], in that order: 1.2 ± 0.28 and 0.984 ± 0.012.
`CC(=O)Oc1ccccc1C(=O)O` [Acetylsalicylic acid] gave a normalised cell viability (treatment time: 3 days) of 1.03 ± 0.043 and a normalised cell viability (treatment time: 6 days) of 0.986 ± 0.093.
For `NC(=O)c1cc[n+](CC2=C(C(=O)[O-])N3C(=O)[C@@H](NC(=O)[C@@H](c4ccccc4)S(=O)(=O)O)[C@H]3SC2)cc1` [Cefsulodin sodium salt], in that order: 0.996 ± 0.048 and 0.979 ± 0.072.
On the same counts, the results for `CC1=C(/C=C/C(C)=C/C=C/C(C)=C/C(=O)O)C(C)(C)CCC1` [Retinoic acid] are 1.03 ± 0.036 and 0.985 ± 0.044.
